# Measurements published in PubChem BioAssay AID686970 (National Center for Advancing Translational Sciences (NCATS), 2013).
# Out of some 360,000 compounds screened, about 6,000 (1.7%) were called active. This list was built around the results that the source calls inconclusive (neither active nor inactive); the mix of calls is not that of the screen. Calls follow the shape of the dose curve; as a rule, active = well fitted cell-killing curve with a large enough effect; inconclusive = small, poorly fitted or top-dose-only effect, or effect the other way; inactive = flat fitted curve, though single readings scatter. No potency is given beside an inconclusive call; the fits are too rough.
# Assay: qHTS for induction of synthetic lethality in tumor cells producing 2HG: qHTS for the HT-1080-NT fibrosarcoma cell line;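 also: NT is the 2HG producing partner of a matched IDH1 knockdown line; nearly all actives have a fitted effect of over 55% in size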;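 as to activity, negative = less viability: 0% = DMSO-treated cells and -100% = media-only wells without cells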
# Conditions: HT-1080-NT fibrosarcoma viability, CellTiter-Glo ATP luminescence, 48 h; activity, negative = less viability: at 46.1 µM (top of the series) unless noted
# Method in brief: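 Viability by CellTiter-Glo luminescence after 48 h compound exposure at 37C of HT-1080-NT cells (750/well, RPMI, 5% FBS). % activity scaled between DMSO wells and medium-only wells, then curve-fitted and categorized by curve class.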
# Potency is read from the fitted curve at half-maximal effect; tags tell the direction and shape of the fitted curve.
SMILES,Potency,"activity, negative = less viability"
COCCNC(=O)c1c[nH]c2ccc(S(=O)(=O)N3CCc4ccccc43)cc2c1=O,active: 2.31 µM,
O=C(Nc1cccc(-c2csc(-c3ccccc3)n2)c1)c1cccs1,"inconclusive [cytotoxic, single point]",
CCOc1ccc(Cl)cc1-c1cc(C(=O)Nc2ccc(F)cc2)[nH]n1,"inconclusive [cytotoxic, single point]",
COCCNC(=O)c1ccc(N(C)S(=O)(=O)c2ccc(OC)c(OC)c2)cc1,inactive,
N#Cc1cccc(NC(=O)COC(=O)c2ccccc2C(=O)c2ccc(Cl)c([N+](=O)[O-])c2)c1,active: 7.31 µM,
CCCCC(=O)Nc1ccc(C(=O)Nc2cc(C(F)(F)F)ccc2Cl)cc1,active: 16.4 µM,
COc1ccccc1C=C(C(=O)c1ccccc1)c1ccccc1,"inconclusive [cytotoxic, single point]",
Cc1ccc(NC(=S)NC2CCSc3ccccc32)cc1 (stereo not given),"inconclusive [cytotoxic, single point]",
C[C@H](CO)N1C[C@H](C)[C@@H](CN(C)C(=O)Nc2ccccc2)Oc2c(NC(=O)Nc3ccc(C(F)(F)F)cc3)cccc2C1=O,"inconclusive [cytotoxic, single point]",
CC(=O)NC1=NN(C(C)=O)C(C)(c2ccco2)S1 (stereo not given),"inconclusive [cytotoxic, partial curve]",
Cc1cc(-c2ccc(S(=O)(=O)N(C)c3ccc(C)c(C)c3)s2)on1,"inconclusive [cytotoxic, full curve, poor fit]",
CCOC(=O)c1cc2oc(C(c3nnnn3C3CCCCC3)N3CCOCC3)cc2[nH]1 (stereo not given),"inconclusive [cytotoxic, single point]",
Cc1cc2nc(C3CCCCC3)c(Cc3cccc(F)c3)n2c(C)c1Br,inactive,
Cn1c(=O)oc2cc(S(=O)(=O)CCC(=O)N3CCN(c4ccccc4)CC3)ccc21,inactive,
O=C(NCc1nnnn1-c1ccc(Cl)cc1)c1ccc([N+](=O)[O-])o1,"inconclusive [cytotoxic, single point]",
CCC(=O)N(CCC1(c2ccccc2OC)CCOC(C(C)C)C1)Cc1ccco1 (stereo not given),"inconclusive [cytotoxic, single point]",
CC(=O)c1ccc(Oc2cc(C)nc(-n3nc(C)cc3C)n2)cc1,"inconclusive [cytotoxic, full curve]",
CCOc1cc(N2CCOCC2)c(OCC)cc1NC(=O)COc1cccc2cccnc12,"inconclusive [cytotoxic, partial curve]",
Cc1ccc(Nc2nc(-c3c(C)nc4ncccn34)cs2)cc1,active: 0.184 µM,
COc1ccc(N(CC(=O)NCCc2ccc(OC)c(OC)c2)S(=O)(=O)c2ccc(OC)c(OC)c2)cc1,inactive,
COc1cc2c(cc1NC(=O)CSc1nnc(COc3ccc(Cl)cc3)n1C)oc1ccccc12,"inconclusive [cytotoxic, single point]",
CC(=O)C(Cc1ccccc1)NC(=O)COc1ccc2c(c1)OCO2 (stereo not given),inactive,
CN1CCN(c2ccccc2NC(=O)c2cccc(OCc3ccccc3)c2)CC1,"inconclusive [cytotoxic, single point]",
Clc1cccc(-c2nc(NCCCN3CCOCC3)c3ccccc3n2)c1,active: 20.6 µM,

SMILES,Potency,"activity, negative = less viability"
Cc1c(Cl)ccc2c(C(=O)NCCN3CCCCC3)cc(-c3ccccn3)nc12,"inconclusive [cytotoxic, single point]",
COC(=O)C1=C(C)N(Cc2ccc(C)cc2)C(=O)/C1=C\c1ccc(O)c(OC)c1,"inconclusive [cytotoxic, single point]",
Nn1cnnc1N/N=C/c1ccc(Cl)c([N+](=O)[O-])c1,"inconclusive [cytotoxic, single point]",
Cc1[nH]c2ccccc2c1C(=O)C(=O)N1CC(C)OC(C)C1 (stereo not given),inactive,
CC(C)c1ccc(NC(=O)c2cc(S(=O)(=O)NCC3COc4ccccc4O3)ccc2F)cc1 (stereo not given),"inconclusive [cytotoxic, single point]",
O=c1cc(-c2ccc(Cl)cc2)[nH]c2ccccc12,inactive,
Nc1nnc(-c2cn(-c3ccccc3)nc2-c2ccc(Cl)cc2)o1,"inconclusive [cytotoxic, single point]",
CCCCn1c(O)c(N=NC(=O)c2ccncc2)c2cc(Br)ccc21,inactive,
CCC(C)n1c(SCC(=O)Nc2cc(C)on2)nc2ccccc2c1=O (stereo not given),"inconclusive [cytotoxic, partial curve]",
CCN(C(=O)COC(=O)c1cnccn1)c1cccc2ccccc12,"inconclusive [cytotoxic, full curve, poor fit]",
COc1ccc(CC(=O)Nc2cccc3c2CCCC3)cc1,inactive,
COc1cccc(/C=N\NC(=O)c2ccc(Cn3cc(Br)c([N+](=O)[O-])n3)o2)c1O,"inconclusive [cytotoxic, partial curve, poor fit]",
COc1cc(OC)cc(C(=O)NC(=S)Nc2ccc(NC(=O)c3ccco3)cc2)c1,"inconclusive [cytotoxic, single point]",
COCCn1c(SCc2nc3ccccc3s2)nc2ccccc21,"inconclusive [cytotoxic, single point]",
CCN(CC(=O)Nc1ccc2c(c1)OCCO2)S(=O)(=O)c1cccs1,inactive,
C/C(=N\NC(=O)C(c1ccccc1)c1ccccc1)c1ccccn1,active: 9.2 µM,
Brc1cc(Br)c2ncnc(N3CCCCC3)c2c1,active: 9.2 µM,
Cc1cc(N2CCN(c3ccc([N+](=O)[O-])c4cccnc34)CC2)c2ccccc2n1,"inconclusive [cytotoxic, partial curve, poor fit]",
CC1c2[nH]c3ccccc3c2CCN1C(=O)Nc1ccccc1 (stereo not given),"inconclusive [cytotoxic, single point]",
Cc1onc(-c2ccccc2)c1C(=O)N/N=C/c1cc(Br)c(Br)o1,inactive,
O=C(c1ccco1)N1N=C(c2ccco2)CC1c1ccc(Cl)cc1Cl (stereo not given),"inconclusive [cytotoxic, single point]",
COc1cc(C(=O)NC(=S)Nc2ccc3ccccc3c2)cc(OC)c1OC,"inconclusive [cytotoxic, single point]",
CC1=C(C(=O)N2CCOCC2)CC(CC(=O)NC2CC2)C(=O)N1Cc1ccc(F)cc1 (stereo not given),"inconclusive [rising, single point]",
Brc1ccc(-c2nnc3c4ccccc4nc(N4CCOCC4)n23)cc1,"inconclusive [rising, full curve]",

SMILES,Potency,"activity, negative = less viability"
Cc1ccc(C2=NN3C(C2)c2ccccc2OC32C(=O)Nc3ccccc32)cc1 (stereo not given),"inconclusive [cytotoxic, single point]",
CC(=O)Nc1cc2c(cc1[N+](=O)[O-])-c1ccccc1C2=NO,inactive,
COc1ccc(C(=O)Nn2c(SCC(=O)c3ccc(Cl)cc3)nc3ccccc3c2=O)cc1,"inconclusive [cytotoxic, single point]",
CCOC(=O)c1sc(NC(=O)CCN2CCN(C)CC2)c(C(=O)OCC)c1C,active: 20.6 µM,
O=C(O)Cc1ccc(NC(=O)c2ccc3c(c2)C(=O)N(Cc2ccco2)C3=O)cc1,inactive,
CCN(CC)c1ccc(C2NCC(c3ccc([N+](=O)[O-])cc3)O2)cc1 (stereo not given),inactive,
FC(F)(F)c1cccc(NC(=S)Nc2ccc(Cl)c(Cl)c2)c1,"inconclusive [cytotoxic, single point]",
O=C1CCC2c3ccc4ccccc4c3CCN12 (stereo not given),inactive,
O=C(NC1CCCCC1)C(c1cccs1)N(Cc1cccs1)C(=O)c1ccco1 (stereo not given),inactive,
Cc1ccc(S(=O)(=O)NNC(=S)Nc2ccc(Cl)cc2)cc1,"inconclusive [cytotoxic, single point]",
O=C(Nc1cccc(Cl)c1)NC1(C(=O)NCc2cccs2)CCCCC1,"inconclusive [cytotoxic, single point]",
CCOC1=C2CN(S(=O)(=O)c3ccc(C)cc3)CC[C@@H]2N(S(=O)(=O)c2ccc(C)cc2)[C@H](c2ccccc2)C1,"inconclusive [rising, partial curve]",
CC(NC(=O)c1ccco1)c1nc(-c2ccc(C(C)(C)C)cc2)no1 (stereo not given),"inconclusive [cytotoxic, single point]",
CCOC(=O)c1cnc(SC)nc1Oc1cccc(NS(=O)(=O)c2ccc(Cl)cc2)c1,inactive,
O=C(O)CSC(=S)N1CCCCC1,inactive,
CC(C)(C)OC(=O)NCCCC[C@H](NC(=O)c1nc[nH]c1C(=O)NC(c1ccccc1)c1ccccc1)C(=O)OC(C)(C)C,"inconclusive [cytotoxic, single point]",
CCC(CC)C(=O)OCC(=O)Nc1ccc(S(=O)(=O)N2CCOCC2)cc1OC,,inconclusive: 4.85%
Cc1nn(-c2ccccc2)c(Cl)c1CN(C(=O)CCl)c1ccc(Cl)cc1,active: 7.31 µM,
OC(c1ccc(Cl)c(F)c1)c1ncc(-c2cccc(F)c2)[nH]1 (stereo not given),"inconclusive [cytotoxic, partial curve]",
Cc1ccc(C)c(NC(=O)c2ccc3c(c2)N(Cc2ccc(F)cc2)C(=O)CS3=O)c1 (stereo not given),inactive,
CCOC(=O)/C=c1/s/c(=C\c2c(OC)ccc3ccccc23)c(=O)n1CC(=O)NCC1CCCO1 (stereo not given),active: 16.4 µM,
COc1ccc([C@H]2C[C@@H](n3cc(C4CC4)nn3)[C@H](O)CN2CC2CCCCC2)cc1,"inconclusive [cytotoxic, single point]",
